Test results published in the supplement of paper PMC11417369.
± gives the standard deviation of the averaged measurements. This is one part of the list.

These sequences were tested on PfAP2-I AP2 domain 3 (GST-tagged) (assay: gcPBM binding intensity (ln(normalized median fluorescence intensity)); higher = stronger DNA binding).
In short: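 In this array assay, P. falciparum DNA-binding domains with a GST tag, expressed in E. coli, were applied for 1 h to primer-extended double-stranded 36-bp intergenic genomic probes and negative controls on an Agilent 4 × 180k array. Bound protein was visualised with Alexa488 anti-GST antibody at 488 nm. Binding intensity is the highest Masliner-normalised natural-log median intensity across replicate spots of either probe orientation.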
“TATTTTTTCTTAAACACACACATATATATATATAAT [CACACA_site5567]” was tested, and the “gcPBM binding intensity (ln)” value was 7.88 ± 0.56.
For “TCTGTGTTTTTGGGTACACACAAATAGCTTGTATAT [CACACA_site4002]”, the “gcPBM binding intensity (ln)” value was 8.08 ± 0.21.
For “TGAAAATTAATAAAAAGTACATAGTCAGATTTGTGA [XGTACX_site2450]”, the “gcPBM binding intensity (ln)” value was 7.75 ± 0.6.
For “TTCCTTAATCAATATTGTACTTTTTATAAATTTAGT [XGTACX_site3678]”, the “gcPBM binding intensity (ln)” value was 8.03 ± 0.42.
“TCTCCTTGTTCCTTTTTTTTAAAAAAAAACATTAAA [CACACA_negctrl_site679]” was tested, and the “gcPBM binding intensity (ln)” value was 8.32 ± 0.49.
With “ATAAATCCATGGGTAGTGCGCATTTTTTTTTTTTTT [GTGCAC_site9732]” the “gcPBM binding intensity (ln)” value was 9.09 ± 0.41.
“TTAGTGTATTAATTCTCACACACTAAGAAAAAAAAA [CACACA_site3878]” was tested, and the “gcPBM binding intensity (ln)” value was 8.57 ± 0.057.
With ATAAAATGTATATGAATGCACTTGAAGTTTTTTTTT the “gcPBM binding intensity (ln)” value was 9.285 ± 0.035.
In the case of “TATATGTGACATGAATGTACCCAAATTATATAAGAA [XGTACX_site3937]”, the “gcPBM binding intensity (ln)” value is reported as 7.92 ± 0.33.
“ATTTAATATATTTATTGTACATATAAAATAAAAGAA [XGTACX_site2413]” was tested, and the “gcPBM binding intensity (ln)” value was 8.02 ± 0.39.
For “TATTCTTACACGTTTGCACACTAAAATATATATATA [CACACA_site435]”, the “gcPBM binding intensity (ln)” value was 9.1 ± 0.27.
For “CATAGGAACATAAGTTGTACGCTATACATACAACAT [XGTACX_site1054]”, the “gcPBM binding intensity (ln)” value was 7.7 ± 0.35.
For “ACATGGTGATAATACTGTACAAAAATAAATAAATAC [XGTACX_site897]”, the “gcPBM binding intensity (ln)” value was 8.06 ± 0.72.
With “TTGTTTGGTTATAATTGTACGCATGTAATTACATAT [XGTACX_site4972]” the “gcPBM binding intensity (ln)” value was 8.15 ± 0.67.
In the case of “TTATTTTTCTAAAAAGCATGCAAATAAAGATATGAA [TGCATGCA_site1032]”, the “gcPBM binding intensity (ln)” value is reported as 8.05 ± 0.47.
In the case of “ACATTCAATAAACGTCGTACACTTTCCTTTTTATGA [XGTACX_site3274]”, the “gcPBM binding intensity (ln)” value is reported as 8.17 ± 0.68.
For “AAAAAAACGATCGATCGTACTTATATTTACACATTC [XGTACX_site2883]”, the “gcPBM binding intensity (ln)” value was 7.54 ± 0.61.
For “ATATATATTTTATTATGTACTTACTTCTTTTCTTAA [XGTACX_site6163]”, the “gcPBM binding intensity (ln)” value was 7.86 ± 0.51.
In the case of “TTTTATAGTCTTATGGGTACAAAATATTAACCCACG [XGTACX_site1131]”, the “gcPBM binding intensity (ln)” value is reported as 8.23 ± 0.24.
In the case of “TATATATATTTATACACACACATATATTTATATATT [CACACA_site484]”, the “gcPBM binding intensity (ln)” value is reported as 7.97 ± 0.45.
“ATTCACTGGTATGCATGAAAAAAAATATTATTATAA [CACACA_negctrl_site702]” was tested, and the “gcPBM binding intensity (ln)” value was 7.92 ± 0.62.
“ATTTTGATAACCGTACGTACATATATATATATATAT [XGTACX_site6605]” was tested, and the “gcPBM binding intensity (ln)” value was 9.46 ± 0.12.
With “TGAATACTTATGTTCGCACACATGCAAATTAAAAAA [CACACA_site4048]” the “gcPBM binding intensity (ln)” value was 9.9 ± 1.1.
In the case of “TTATGTGTATACTAAGAACACACAAGTTACTTGGTG [CACACA_site8467]”, the “gcPBM binding intensity (ln)” value is reported as 7.5 ± 0.53.
With “AACACATACAAACACACACACAAAAAAAAAAAAAAA [CACACA_site393]” the “gcPBM binding intensity (ln)” value was 8.29 ± 0.36.
With “ATTATATATGTATGGTGTACTAAGAATATTTTTTTA [XGTACX_site1950]” the “gcPBM binding intensity (ln)” value was 8.29 ± 0.11.
In the case of “CCCGAACAAACAAATAAACACACAAAAAAAAATATA [CACACA_site8540]”, the “gcPBM binding intensity (ln)” value is reported as 7.82 ± 0.92.
In the case of “TATTGAAAAAATAAAAGTACAAACTCTTATAATATG [XGTACX_site8196]”, the “gcPBM binding intensity (ln)” value is reported as 7.64 ± 0.37.
“ATTCAATATAAATACACACACACTTTTAATAATTAA [CACACA_site5963]” was tested, and the “gcPBM binding intensity (ln)” value was 7.87 ± 0.41.
In the case of “CTAAACAAAAAATAATGTACACATACATAAAAAATA [XGTACX_site1808]”, the “gcPBM binding intensity (ln)” value is reported as 7.84 ± 0.092.
“ACAATACAAATATATACACACATACATACATACATA [CACACA_site5699]” was tested, and the “gcPBM binding intensity (ln)” value was 8.24 ± 0.83.
“TATTTATTAAAACACACACACACACCGACAAAATAA [CACACA_site4293]” was tested, and the “gcPBM binding intensity (ln)” value was 8.26 ± 0.13.
With “TTAATTTGTAAATAATGTACATATAAATGGAAAGTA [XGTACX_site2743]” the “gcPBM binding intensity (ln)” value was 8.4 ± 0.45.
In the case of “TAATAAAACATATATACACACATTATGTATACATAT [CACACA_site1703]”, the “gcPBM binding intensity (ln)” value is reported as 7.61 ± 0.42.
For “TTAATATTTACAAAATGTACAGATTATTTATTGTTG [XGTACX_site1270]”, the “gcPBM binding intensity (ln)” value was 7.41 ± 0.3.
For “TTTTTTAATATTTATACATGCATGCCGATTACTATA [TGCATGCA_site26]”, the “gcPBM binding intensity (ln)” value was 7.91 ± 0.67.
For “AATAATTATAATAAGGGTACGTATCTCACAGGAAAA [XGTACX_site4187]”, the “gcPBM binding intensity (ln)” value was 7.86 ± 0.71.
In the case of “AAATATGTCAAATATACACACATAATAACTAGAATA [CACACA_site7151]”, the “gcPBM binding intensity (ln)” value is reported as 7.46 ± 0.54.
“TATATATATTTAAAAAGTACAAAAAAAAAAAATGAA [XGTACX_site374]” was tested, and the “gcPBM binding intensity (ln)” value was 7.95 ± 0.57.
For “TATGTAGATAAATAAGCACACACCAAACATATAAAA [CACACA_site1182]”, the “gcPBM binding intensity (ln)” value was 8.42 ± 0.61.
For “ATCAGTCGAGATGACAGTACACAGTAGCCAGGAAAT [XGTACX_site4932]”, the “gcPBM binding intensity (ln)” value was 7.94 ± 0.69.
With “AAATGTTGAAATGATACACACATATAAATATAAATA [CACACA_site7229]” the “gcPBM binding intensity (ln)” value was 7.71 ± 0.58.
With “CCCTGAGCACTTTCGTGTACTAATAGTAACAATAAT [XGTACX_site1418]” the “gcPBM binding intensity (ln)” value was 10.4 ± 0.11.
With “AAACAAATGTATATGTGTACTTATTTTTTTGTATGT [XGTACX_site7134]” the “gcPBM binding intensity (ln)” value was 7.89 ± 0.26.
In the case of “ATAAAGAAAAGGAACACACAAATATGTAAATATGTA [CACACA_site6356]”, the “gcPBM binding intensity (ln)” value is reported as 7.65 ± 0.68.
“TTACACATAAATACCATATAAATATAATGCATATCT [CACACA_negctrl_site1731]” was tested, and the “gcPBM binding intensity (ln)” value was 7.82 ± 0.61.
With “TAAAATATTATCTACGCACACATTAAAATAAAAAAA [CACACA_site3709]” the “gcPBM binding intensity (ln)” value was 8.32 ± 0.2.
For “AAAACATTATTCCATACACACCATACTTTTTAATAA [CACACA_site7326]”, the “gcPBM binding intensity (ln)” value was 7.94 ± 0.59.
In the case of “CATTTGCACACGCACACACACATAAAAAGAAAAATA [CACACA_site6297]”, the “gcPBM binding intensity (ln)” value is reported as 9.35 ± 0.13.
With “TCTTGACTAAATATATGTACATATATTTTAATAATA [XGTACX_site701]” the “gcPBM binding intensity (ln)” value was 7.84 ± 0.43.
“TAAGTGCTTTTCAACTGTACCTTCCATTTATTTATT [XGTACX_site8589]” was tested, and the “gcPBM binding intensity (ln)” value was 9.13 ± 0.17.
“ACTACATAATATTTACGTACCTAAAAAATTCTTATA [XGTACX_site509]” was tested, and the “gcPBM binding intensity (ln)” value was 7.97 ± 0.33.
In the case of “AAAAAAAAAAAAAATACACACGTGAATGTATTGTTT [CACACA_site4856]”, the “gcPBM binding intensity (ln)” value is reported as 8.21 ± 0.45.
For “TTCTTATTTTATATTTCACACATTTTTACTATACTT [CACACA_site5817]”, the “gcPBM binding intensity (ln)” value was 8.24 ± 0.59.
With “GTATTCAAAAGTGAAACATGCAATAATATATATATA [TGCATGCA_site617]” the “gcPBM binding intensity (ln)” value was 9.14.
“AAGGAGCCTATGAACACACACATGTACCTATATTAA [CACACA_site7838]” was tested, and the “gcPBM binding intensity (ln)” value was 7.81 ± 0.72.
In the case of “ATACGTATTTATTTCACACACGTTAAAAAAATAAAA [CACACA_site6027]”, the “gcPBM binding intensity (ln)” value is reported as 7.91 ± 0.45.
